± gives the standard error. This sample is rich in variants without activity.
B1: glmS ribozyme (parent)
chain: AUAAAAGCGCCAGAACUACAGAAAUGUAGUUGACGAGGAGGAGGUUUAUCGAAUUUUCGGCGGAUGCCUCCAAA

Columns and labels:
Conditions in all cases: with glucosamine-6-phosphate
glucosamine-6-phosphate [1] = variants of: B1; experiment: self-cleavage kobs at 640 uM GlcN6P; higher = faster cleavage; RNA array
How it was run: (§1)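 kobs was derived by fitting per-tile medians to one- or two-exponential decays after normalising signals to baseline and to non-cleaving reference variants. Those signals came from barcoded ribozyme variants transcribed in situ by E. coli RNA polymerase on sequenced MiSeq chips, followed through a hybridised Cy3 probe at 37 °C and imaged over ~14 h. Glucosamine-6-phosphate (40 μM to 10 mM) in HEPES/KCl/Mg(OAc)2 buffer was flowed in. Weighted Michaelis–Menten fits across concentrations then gave kcat and KM.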

glucosamine-6-phosphate [2] = variants of: B1; experiment: self-cleavage kobs at 160 uM GlcN6P; higher = faster cleavage; RNA array
How it was run: as §1

glucosamine-6-phosphate [3] = variants of: B1; experiment: self-cleavage kobs at 2500 uM GlcN6P; higher = faster cleavage; RNA array
How it was run: as §1

glucosamine-6-phosphate [4] = variants of: B1; experiment: self-cleavage kobs at 10000 uM GlcN6P; higher = faster cleavage; RNA array
How it was run: as §1

Variant | self-cleavage kobs at 640 uM GlcN6P (glucosamine-6-phosphate [1]) [s⁻¹] | self-cleavage kobs at 160 uM GlcN6P (glucosamine-6-phosphate [2]) [s⁻¹] | self-cleavage kobs at 2500 uM GlcN6P (glucosamine-6-phosphate [3]) [s⁻¹] | self-cleavage kobs at 10000 uM GlcN6P (glucosamine-6-phosphate [4]) [s⁻¹]
U47A U56C | 0.000703 ± 8.8e-05 | 0.000111 ± 2.1e-05 | 0.00144 ± 0.00021 | 0.00257 ± 0.00031
G43U G51U C71U | < 1e-05 | – | < 1e-05 | –
G41C G59C | < 1e-05 | < 1e-05 | < 1e-05 | –
G43U U69C C70G | < 1e-05 | < 1e-05 | – | –
G41C C50G G51C | < 1e-05 | – | – | –
G41A G66U C70A | 9.26e-05 ± 3.3e-05 | – | 6.32e-05 ± 2.8e-05 | 0.000131 ± 2e-05
G40A U57C C58A C61U | < 1e-05 | – | – | –
G41C G63C A64U | < 1e-05 | – | < 1e-05 | –
G40U C61G U65G | < 1e-05 | – | < 1e-05 | –
A39C G43U G62C A64U C70U | < 1e-05 | – | < 1e-05 | –
G43C C58U C70A | < 1e-05 | < 1e-05 | < 1e-05 | –
G41C A42U U55C C61U G66C | < 1e-05 | – | – | –
G40U C50A A64G | < 1e-05 | – | – | –
U46A U47G G63U U65A | < 1e-05 | – | < 1e-05 | –
U47G A52U | 6.99e-05 ± 7.7e-06 | – | 0.000169 ± 2e-05 | 0.000234 ± 2.6e-05
U45A G59C | < 1e-05 | – | – | –
U47C G62U | < 1e-05 | < 1e-05 | < 1e-05 | < 1e-05
G44A U49A U65A | < 1e-05 | – | – | –
A39G G40C A48C | < 1e-05 | – | – | –
G44U G66A C70G | < 1e-05 | < 1e-05 | < 1e-05 | –
U45C U54C G60C | < 1e-05 | – | < 1e-05 | < 1e-05
G43C A64C | < 1e-05 | < 1e-05 | < 1e-05 | < 1e-05
G44U U49C G60A G63A C67G | < 1e-05 | – | < 1e-05 | –

Variant | self-cleavage kobs at 640 uM GlcN6P (glucosamine-6-phosphate [1]) [s⁻¹] | self-cleavage kobs at 160 uM GlcN6P (glucosamine-6-phosphate [2]) [s⁻¹] | self-cleavage kobs at 2500 uM GlcN6P (glucosamine-6-phosphate [3]) [s⁻¹] | self-cleavage kobs at 10000 uM GlcN6P (glucosamine-6-phosphate [4]) [s⁻¹]
U46C A64C C68U | < 1e-05 | – | < 1e-05 | –
U46A U49A | < 1e-05 | < 1e-05 | < 1e-05 | –
U46C C50U G66C | < 1e-05 | – | < 1e-05 | –
G43C G44C A53G | < 1e-05 | < 1e-05 | < 1e-05 | –
A39C G43C C50G G59U | < 1e-05 | – | < 1e-05 | –
G40A U45C U56C U57A | < 1e-05 | < 1e-05 | < 1e-05 | –
A39C A42C C67G C68A C70G | < 1e-05 | – | < 1e-05 | –
G40C G60U C67G | < 1e-05 | < 1e-05 | < 1e-05 | –
U46G C50A C67G | 0.000631 ± 0.00012 | – | 0.000506 ± 0.00017 | –
A48C G60C | < 1e-05 | – | < 1e-05 | < 1e-05
U45G C50U A52G U56G | < 1e-05 | – | – | –
G43C G44U G60U | < 1e-05 | – | – | –
G40C C50A | < 1e-05 | – | – | < 1e-05
U47C C61U U69A | < 1e-05 | < 1e-05 | – | –
G44U A48U A64G C67G | 0.000188 ± 7.9e-05 | – | – | –
G43C G63A | < 1e-05 | – | < 1e-05 | –
G43A U49G C50G U57C | < 1e-05 | – | – | –
G40U U45C G59A G63A | < 1e-05 | – | < 1e-05 | –
G41A U45C G59U G60U | < 1e-05 | – | – | –
G41U C58A | < 1e-05 | < 1e-05 | – | –
A39U U54C G62C | < 1e-05 | < 1e-05 | < 1e-05 | –
A39C C61G C67A | < 1e-05 | < 1e-05 | – | –
A42C A48U | < 1e-05 | – | – | < 1e-05

Variant | self-cleavage kobs at 640 uM GlcN6P (glucosamine-6-phosphate [1]) [s⁻¹] | self-cleavage kobs at 160 uM GlcN6P (glucosamine-6-phosphate [2]) [s⁻¹] | self-cleavage kobs at 2500 uM GlcN6P (glucosamine-6-phosphate [3]) [s⁻¹] | self-cleavage kobs at 10000 uM GlcN6P (glucosamine-6-phosphate [4]) [s⁻¹]
U45A G63C C68G | < 1e-05 | < 1e-05 | < 1e-05 | –
G40C G60U A64U | < 1e-05 | – | – | < 1e-05
G40U U55A C71A | 0.00279 ± 0.00086 | – | – | 0.0227 ± 0.0049
G43A C50G C67A | < 1e-05 | – | – | –
G43C U45C U55A | < 1e-05 | – | < 1e-05 | –
A42G G43A G44C | < 1e-05 | – | < 1e-05 | –
G44C G66C U69C | < 1e-05 | – | < 1e-05 | –
G41C G51U A64C | < 1e-05 | – | < 1e-05 | –
G41U U46G A48C U49C | < 1e-05 | – | – | –
U47C U54G G60A | < 1e-05 | – | – | –
G41C C50U G59U | < 1e-05 | – | – | –
G43C G51C | < 1e-05 | – | – | < 1e-05
A39C G59C C68U | < 1e-05 | – | – | –
A39U G40U G60C C70A | < 1e-05 | < 1e-05 | – | –
G43U G63U A64U | < 1e-05 | – | < 1e-05 | –
G40U A64C | < 1e-05 | < 1e-05 | – | –
G44C | 4.33e-05 ± 1.8e-06 | < 1e-05 | 0.000127 ± 2.9e-06 | 0.000159 ± 3.5e-06
G44U | 0.000101 ± 2.1e-06 | 2.34e-05 ± 1.7e-06 | 0.000282 ± 6.2e-06 | 0.000335 ± 6.6e-06
U47G G62U U65A | < 1e-05 | – | < 1e-05 | –
U47C C50A U69G | 5.61e-05 ± 2.5e-05 | – | 9.43e-05 ± 2.6e-05 | –
G41C U46A G60C | < 1e-05 | – | – | –
U45C U46G | 0.000322 ± 8.8e-05 | 7.78e-05 ± 1.5e-05 | 0.000911 ± 0.00015 | 0.000685 ± 0.00025
G43C U65G | < 1e-05 | – | – | –

Variant | self-cleavage kobs at 640 uM GlcN6P (glucosamine-6-phosphate [1]) [s⁻¹] | self-cleavage kobs at 160 uM GlcN6P (glucosamine-6-phosphate [2]) [s⁻¹] | self-cleavage kobs at 2500 uM GlcN6P (glucosamine-6-phosphate [3]) [s⁻¹] | self-cleavage kobs at 10000 uM GlcN6P (glucosamine-6-phosphate [4]) [s⁻¹]
A42C A53C G60A | < 1e-05 | – | < 1e-05 | –
A39G G44C A48C C71G | < 1e-05 | < 1e-05 | < 1e-05 | –
G41C A53U | 7.44e-05 ± 1.2e-05 | – | – | –
A48C U65C | < 1e-05 | < 1e-05 | – | –
G41A A53U C61A G63C | < 1e-05 | < 1e-05 | < 1e-05 | –
G44U C50A G66U C68A C71U | < 1e-05 | – | – | –
A39G G51C C71U | < 1e-05 | – | – | < 1e-05
G41U C68G | < 1e-05 | – | – | < 1e-05
U47A G63A | < 1e-05 | – | – | –
G41A U46A C50U | < 1e-05 | < 1e-05 | < 1e-05 | –
G44U U45A U46G G51C | < 1e-05 | – | – | –
A48C G51A C70U | < 1e-05 | – | < 1e-05 | < 1e-05
U47A U56A C70U | 0.00117 ± 0.00047 | – | 0.00157 ± 0.0006 | –
G43A G51C A64G | < 1e-05 | – | – | –
G43C A52U U57G G60A | < 1e-05 | – | < 1e-05 | –
U45G U46A U49A | < 1e-05 | – | < 1e-05 | –
A39C U45G U56G | 7.85e-05 ± 2.3e-05 | – | – | –
A42C C70G C71A | < 1e-05 | – | < 1e-05 | –
U46A U49C G62U U65A | < 1e-05 | – | < 1e-05 | –
U45G U69C | 0.0407 ± 0.018 | – | – | –
A39U A42C | 9.53e-05 ± 1.1e-05 | 2.58e-05 ± 7.6e-06 | 0.000273 ± 3.6e-05 | 0.000419 ± 3.9e-05
A42U C50G U55G | < 1e-05 | – | < 1e-05 | –
A39G G60C | < 1e-05 | < 1e-05 | – | –

Variant | self-cleavage kobs at 640 uM GlcN6P (glucosamine-6-phosphate [1]) [s⁻¹] | self-cleavage kobs at 160 uM GlcN6P (glucosamine-6-phosphate [2]) [s⁻¹] | self-cleavage kobs at 2500 uM GlcN6P (glucosamine-6-phosphate [3]) [s⁻¹] | self-cleavage kobs at 10000 uM GlcN6P (glucosamine-6-phosphate [4]) [s⁻¹]
G43A C70A | < 1e-05 | < 1e-05 | – | < 1e-05
U46C C71A | 0.000252 ± 4.5e-05 | 8.19e-05 ± 2.2e-05 | 0.00045 ± 9.1e-05 | 0.000453 ± 0.00011
G38U U65C | < 1e-05 | – | < 1e-05 | –
A42U A64C | < 1e-05 | – | – | –
G43U G60U | < 1e-05 | < 1e-05 | < 1e-05 | < 1e-05
G41U G44A C50U | < 1e-05 | – | < 1e-05 | –
G44U U46A A53U C70G | < 1e-05 | – | – | –
G41C A48C C61U | < 1e-05 | – | < 1e-05 | –
A42C U47C C70G | < 1e-05 | – | – | –
A39G A64C U69G C71U | < 1e-05 | – | < 1e-05 | –
U45A G63A G66U | < 1e-05 | < 1e-05 | < 1e-05 | –
G43C U69A | < 1e-05 | < 1e-05 | < 1e-05 | < 1e-05
G44C C58G C61G | < 1e-05 | – | – | –
G43U A52C U65G | < 1e-05 | < 1e-05 | < 1e-05 | –
A39C A42U A64U | < 1e-05 | – | – | –
G44A G60C | < 1e-05 | – | < 1e-05 | < 1e-05
G40U C68G | < 1e-05 | < 1e-05 | < 1e-05 | < 1e-05
A42C G43U | < 1e-05 | < 1e-05 | < 1e-05 | –
G41U C67A | < 1e-05 | < 1e-05 | – | –
